# Reference: PubChem BioAssay AID504333 (National Center for Advancing Translational Sciences (NCATS), 2011)
# Several values for one entry are separate records, joined by “and”; a condition that tells them apart may be missing. Equal values may be shown once. Screen size: about 360,000 compounds; about 16,000 (4.4%) were called active. The inconclusive results got no clear call from the source; some entries with a clear call stand among them for comparison. Calls come from the whole dose curve; as a rule, active = well fitted inhibition curve with a large enough effect; inconclusive = small, poorly fitted or top-dose-only effect; inactive = no such curve, though single readings can be large or run the other way. Where the call is inconclusive, the potency comes from a doubtful curve fit. More than one record can exist for a structure, and the calls need not agree.
# Target: Bromodomain adjacent to zinc finger domain protein 2B (Homo sapiens) (UniProt Q9UIF8)
# Assay: qHTS Assay for Inhibitors of BAZ2B; note: nearly all actives have a fitted effect of over 60% in size
# Details: AlphaScreen BAZ2B-H3K14Ac peptide displacement; series mostly up to 114 µM
# Outline: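 BAZ2B (50 nM) with biotin-H3(5-23)K14Ac peptide (50 nM) in PBS pH 7.4, 0.01% Tween-20, preformed 30 min, then compound 30 min at room temperature; top concentration 110uM. AlphaScreen streptavidin donor/nickel chelate acceptor beads (10 ug/mL final), 20 min dark, signal read.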
# Potency is the fitted concentration of half-maximal effect; tags give direction and shape of the fitted curve.
# Chain of UniProt Q9UIF8 (Q9UIF8 whole entry, looked up, the tested form may be a part): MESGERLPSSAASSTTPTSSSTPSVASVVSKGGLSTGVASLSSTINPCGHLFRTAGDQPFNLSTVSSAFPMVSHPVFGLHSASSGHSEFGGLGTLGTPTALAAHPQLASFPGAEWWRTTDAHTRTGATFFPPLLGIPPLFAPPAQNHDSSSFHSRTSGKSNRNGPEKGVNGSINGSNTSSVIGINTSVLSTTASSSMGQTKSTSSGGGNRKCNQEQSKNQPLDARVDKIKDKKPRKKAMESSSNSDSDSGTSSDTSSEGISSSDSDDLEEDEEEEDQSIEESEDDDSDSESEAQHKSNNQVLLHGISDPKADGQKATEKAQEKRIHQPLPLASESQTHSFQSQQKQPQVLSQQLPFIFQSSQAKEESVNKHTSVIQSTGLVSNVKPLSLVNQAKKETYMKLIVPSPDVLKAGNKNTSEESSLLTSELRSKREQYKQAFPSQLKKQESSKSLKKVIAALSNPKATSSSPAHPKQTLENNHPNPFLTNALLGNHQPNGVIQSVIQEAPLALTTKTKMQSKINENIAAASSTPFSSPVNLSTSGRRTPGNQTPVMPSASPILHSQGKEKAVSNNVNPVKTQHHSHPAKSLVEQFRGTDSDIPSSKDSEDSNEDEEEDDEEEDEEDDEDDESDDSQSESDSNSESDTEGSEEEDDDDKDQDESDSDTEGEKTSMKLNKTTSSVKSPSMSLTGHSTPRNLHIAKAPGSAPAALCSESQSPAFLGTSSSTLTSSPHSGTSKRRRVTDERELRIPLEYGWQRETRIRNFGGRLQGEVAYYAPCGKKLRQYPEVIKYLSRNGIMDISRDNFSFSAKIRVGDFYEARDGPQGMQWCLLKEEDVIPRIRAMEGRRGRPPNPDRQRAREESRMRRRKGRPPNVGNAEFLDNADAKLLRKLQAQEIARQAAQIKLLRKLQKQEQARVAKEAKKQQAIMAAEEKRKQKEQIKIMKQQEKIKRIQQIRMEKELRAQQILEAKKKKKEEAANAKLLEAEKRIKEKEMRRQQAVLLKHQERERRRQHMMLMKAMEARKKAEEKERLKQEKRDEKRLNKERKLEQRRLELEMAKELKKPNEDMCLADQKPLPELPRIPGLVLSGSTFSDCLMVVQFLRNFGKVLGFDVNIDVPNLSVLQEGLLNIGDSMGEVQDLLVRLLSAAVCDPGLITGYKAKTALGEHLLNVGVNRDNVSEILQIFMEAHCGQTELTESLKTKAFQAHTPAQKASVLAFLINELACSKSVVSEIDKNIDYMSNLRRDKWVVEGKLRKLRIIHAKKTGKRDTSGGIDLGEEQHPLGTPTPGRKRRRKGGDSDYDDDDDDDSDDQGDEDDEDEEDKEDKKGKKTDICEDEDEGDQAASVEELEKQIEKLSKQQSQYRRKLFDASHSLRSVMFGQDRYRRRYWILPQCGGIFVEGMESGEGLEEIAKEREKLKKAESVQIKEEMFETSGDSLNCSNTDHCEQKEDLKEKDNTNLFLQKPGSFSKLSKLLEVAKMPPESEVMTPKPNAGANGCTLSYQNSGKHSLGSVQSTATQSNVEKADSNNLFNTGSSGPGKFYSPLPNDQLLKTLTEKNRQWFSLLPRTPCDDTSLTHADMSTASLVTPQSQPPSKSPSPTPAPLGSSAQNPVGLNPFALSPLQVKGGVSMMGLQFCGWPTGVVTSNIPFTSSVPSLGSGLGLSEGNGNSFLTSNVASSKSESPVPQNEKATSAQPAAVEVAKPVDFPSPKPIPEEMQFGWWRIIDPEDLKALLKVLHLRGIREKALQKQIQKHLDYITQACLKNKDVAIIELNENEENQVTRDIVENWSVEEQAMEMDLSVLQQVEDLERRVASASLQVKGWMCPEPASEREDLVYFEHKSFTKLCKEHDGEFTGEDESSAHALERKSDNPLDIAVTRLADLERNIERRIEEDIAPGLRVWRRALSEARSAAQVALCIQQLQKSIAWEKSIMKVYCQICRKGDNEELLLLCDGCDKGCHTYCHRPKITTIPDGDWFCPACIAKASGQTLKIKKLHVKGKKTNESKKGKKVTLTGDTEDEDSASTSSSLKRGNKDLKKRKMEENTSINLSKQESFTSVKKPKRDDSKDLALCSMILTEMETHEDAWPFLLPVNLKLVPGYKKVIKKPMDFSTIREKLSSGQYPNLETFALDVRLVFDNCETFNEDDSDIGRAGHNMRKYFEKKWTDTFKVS
row,Compound,Potency
1,Cc1ccc(-n2c(C)cc(C(=O)COC(=O)c3ccc[nH]c3=O)c2C)cc1C,"inconclusive: 70.8 µM [inhibitor, single point]"
2,Cc1cccc(N2CCN(C(=O)c3ccc4c(c3)NC(=O)C(CSCc3cccc(F)c3)N4)CC2)c1C (stereo not given),"inconclusive: 79.4 µM [inhibitor, partial curve]"
3,Cc1cccc(NCc2ccc(N(C)C)cc2)n1,active: 39.8 µM
4,COc1cccc(NC(=O)CN(C)C(=O)c2ccc3[nH]c4c(c3c2)CC(C)CC4)c1 (stereo not given),active: 39.8 µM
5,COc1ccc(CN(Cc2ccccn2)S(=O)(=O)c2ccc(-n3cnnn3)cc2)cc1,inactive
6,CCN(CC)C(=S)SSC(=S)N(CC)CC,inactive
7,CCOC(=O)CCCCC(=O)c1[nH]c(=O)[nH]c1C[n+]1ccc(C)cc1,"inconclusive: 100 µM [inhibitor, single point]"
8,Clc1ccc(CCNc2ncnc3c2c(-c2ccccc2)cn3-c2ccccc2)cc1,inactive
9,COc1ccccc1/C=C/C=N/n1c(-c2ccncc2)n[nH]c1=S,"inconclusive: 89.1 µM [inhibitor, single point]"
10,O=C(Nn1c(O)c(C=C2N=c3ccccc3=N2)sc1=S)c1ccccc1Cl,"inconclusive: 39.8 µM [inhibitor, full curve]"
11,N#C/C(=C\c1ccc(N2CCOCC2)o1)c1ccccc1,active: 39.8 µM
12,COCCn1c(C)cc(C(=O)COC(=O)C23CC4CC(CC(O)(C4)C2)C3)c1C,"inconclusive: 70.8 µM [inhibitor, single point]"
13,CN1CCC2(CC1)C1CN(C)CC=C1C(C#N)=C(N)C2(C#N)C#N (stereo not given),"inconclusive: 79.4 µM [inhibitor, single point] and inconclusive: 89.1 µM [inhibitor, single point]"
14,COc1ccc(/C=C/C(=O)C2C(=O)C=C(C)OC2=O)cc1O (stereo not given),active: 50.1 µM
15,Cc1ccc2ccc(C(Nc3ccccn3)c3ccccc3)c(O)c2n1 (stereo not given),"inconclusive: 22.4 µM [inhibitor, full curve]"
16,CC(=O)c1c(C)[nH]c(C(=O)Nc2nc(-c3ccc(Cl)cc3)cs2)c1C,inactive
17,O=C(OC(C(=O)Nc1ccc(Cl)c(C(F)(F)F)c1)c1ccccc1)C1=COCCO1 (stereo not given),inactive
18,CN(C(=O)CCNC(=O)Cn1cnc2ccccc2c1=O)c1ccccc1F,inactive
19,C=CCc1c(C)nc2nc(SCC(=O)Nc3ccccc3CC)nn2c1C,inactive
20,CC(NC(=O)c1ccco1)C(=O)Nc1nc(-c2ccccn2)cs1 (stereo not given),active: 22.4 µM
21,C/C=C/c1ccc(OCCN2CCc3ccccc3C2)c(OC)c1,"inconclusive: 70.8 µM [inhibitor, single point]"
22,CC1=Nc2ccc(C)cc2/C1=C/c1c(N)n2nc(CC(=O)N3CCOCC3)sc2nc1=O,inactive
23,COc1ccc(NCC(O)Cn2c(C)c(C)c3ccccc32)cc1 (stereo not given),active: 39.8 µM
24,CCOC(=O)C1=C(C)N(CCO)C(=O)NC1c1ccccc1 (stereo not given),inactive
25,Cc1cc(/C=C2\C(=N)N3N=C(S(C)(=O)=O)SC3=NC2=O)c(C)n1Cc1ccccc1,inactive

row,Compound,Potency
1,O=C(Nc1ccccc1N1CCCCC1)c1cccc([N+](=O)[O-])c1,"inconclusive: 39.8 µM [inhibitor, partial curve]"
2,COC(=O)c1sccc1NC(=O)CN1CCN(c2ccc(F)cc2)CC1,"inconclusive: 35.5 µM [inhibitor, full curve, poor fit]"
3,O=C(CCN1CCN(c2ccc([N+](=O)[O-])cc2)CC1)c1ccc(Cl)cc1,"inconclusive: 22.4 µM [inhibitor, full curve]"
4,Cc1cccc(-c2n[nH]c(=S)n2/N=C/C=C/c2ccco2)c1,"inconclusive: 44.7 µM [inhibitor, partial curve]"
5,Cc1ccc2nc(-c3ccccn3)c(Nc3ccc(F)cc3)n2c1,active: 5.62 µM
6,O=C(c1ccc(-n2cncn2)c([N+](=O)[O-])c1)N1CCN(S(=O)(=O)c2c(F)cccc2F)CC1,inactive
7,O=C(O)c1ccc2c(c1)C(=O)/C(=C/c1ccccc1)C2=O,active: 50.1 µM
8,Cc1nn(C)c(C)c1NC(=O)CCl,active: 35.5 µM
9,COc1ccccc1S(=O)(=O)Cc1ccc(C(=O)N2CCN(c3ccc(C)cc3)C(C)C2)o1 (stereo not given),"inconclusive: 50.1 µM [inhibitor, partial curve]"
10,COc1ccc(/C=C/c2nc(C#N)c(N3CCN(c4ccccc4)CC3)o2)cc1OC,inactive
11,Cc1cc(C)c(OCCN2CCOCC2)c(Cl)c1,"inconclusive: 89.1 µM [inhibitor, single point]"
12,Cc1ccc2nc(NC(=S)NC(=O)c3ccc(OC(C)C)cc3)sc2c1,active: 56.2 µM
13,CC(NC(=O)c1ccc(S(=O)(=O)N(C)C)cc1)c1ccccc1 (stereo not given),inactive
14,O=C(Nc1cccc(N2C(=O)C=CC2=O)c1)c1cccs1,"inconclusive: 89.1 µM [inhibitor, single point]"
15,O=C(NCCc1ccccc1)C(=O)NN=C1CCCC1,"inconclusive: 89.1 µM [inhibitor, single point]"
16,Clc1ccc(C2CSc3c4ncnc-4ncn32)cc1 (stereo not given),inactive
17,CC1=CC(C)(C)n2c(O)c(N=N)c3cc(C)cc1c32,active: 44.7 µM
18,C=CCNC(=S)N1CCC(C(=O)c2ccc(F)cc2)CC1,inactive
19,Cc1cc2nc3ccc(=[N+](C)C)cc-3sc2cc1N,active: 35.5 µM
20,O=C(NCCC1CCCCN1S(=O)(=O)c1ccccc1)C(=O)NC1CCCC1 (stereo not given),inactive
21,COc1ccccc1-[n+]1c(C)cc(/C=C2\Sc3ccccc3N2C)cc1C,inactive
22,O=C(CCCNC(=O)c1ccc(Cl)cc1)Nc1ccc(S(=O)(=O)Nc2ncccn2)cc1,inactive
23,Cc1nnc(NC(=O)c2nc(S(=O)(=O)Cc3ccccc3)ncc2Cl)s1,active: 50.1 µM
24,O=C(Cn1nc(Br)nc1Br)c1ccccc1,"inconclusive: 89.1 µM [inhibitor, single point]"
25,Cn1c(=O)c2c(SCC(=O)NCc3ccco3)nc(-c3ccccc3Cl)nc2n(C)c1=O,inactive

row,Compound,Potency
1,COc1ccc(/C=C2\NC(=S)N(CC3CCCO3)C2=O)c(OC)c1C (stereo not given),"inconclusive: 100 µM [inhibitor, single point]"
2,c1ccc(CNn2c(N3CCOCC3)nc3ccccc32)cc1,inactive
3,O=C(CNC(=O)C12CC3CC(CC(C3)C1)C2)N/N=C\c1ccco1,inactive
4,Cc1coc(C)c1C(=O)CC1(O)C(=O)N(CCc2ccccc2)c2ccccc21 (stereo not given),"inconclusive: 79.4 µM [inhibitor, single point]"
5,COc1cc(OC)c2c(-c3ccccc3)cc(=O)oc2c1C(CCN1CCCC(C)C1)c1ccc(N(C)C)cc1 (stereo not given),active: 15.8 µM
6,CCN(CC)CCCCN1c2ccccc2Sc2ccccc21,"inconclusive: 70.8 µM [inhibitor, single point]"
7,O=C(O)CSCC(=O)Nc1ccc(C(F)(F)F)cc1,"inconclusive: 89.1 µM [inhibitor, single point]"
8,CN(C)CCCN(C(=O)c1ccc(S(=O)(=O)N2CCCCC2)cc1)c1nc2cc3c(cc2s1)OCO3,"inconclusive: 44.7 µM [inhibitor, partial curve]"
9,CCN(CC)c1ccc(NC(=O)c2cccc(OC)c2)c(C)c1,"inconclusive: 79.4 µM [inhibitor, single point]"
10,CCOc1ccc(N2C(=O)CN(C)C2=S)cc1,inactive
11,CNC(=S)N(CCc1c(C)[nH]c2ccc(F)cc12)Cc1cccnc1,"inconclusive: 70.8 µM [inhibitor, partial curve]"
12,Cc1ccc(C)c(N2CCN(C(=O)CN3C(=O)CSc4c3c(C)nn4-c3ccccc3)CC2)c1,inactive
13,CCN1C/C(=C/c2ccc(N3CCOCC3)cc2)C(=O)/C(=C/c2ccc(N3CCOCC3)cc2)C1,"inconclusive: 39.8 µM [inhibitor, full curve, poor fit]"
14,COc1cccc(NC(=O)COC(=O)/C=C/c2ccco2)c1,"inconclusive: 89.1 µM [inhibitor, single point]"
15,O=[N+]([O-])c1ccc(Cl)c(CN2CCC(O)CC2)c1,active: 56.2 µM
16,Cc1ccc(C)c(SCC(=O)Nc2oc(C)c3c(C)n[nH]c(=O)c23)c1,inactive
17,Cc1cc(/C=C(\C#N)C(=O)O)c(C)n1C1CC1,"inconclusive: 89.1 µM [inhibitor, single point]"
18,C=CCNC(=S)NNc1nc2c(c(=O)[nH]1)C1(CCCCC1)Cc1ccccc1-2,"inconclusive: 31.6 µM [inhibitor, full curve]"
19,Cc1[nH]c2ccccc2c1N=Nc1cc(C(=O)O)cc(C(=O)O)c1,"inconclusive: 79.4 µM [inhibitor, partial curve]"
20,Cc1cc(C)cc(CN2C(=O)NC3(CCCCCC3)C2=O)c1,inactive
21,O=C(c1ccc(N2CCCCC2)c([N+](=O)[O-])c1)N1CCN(S(=O)(=O)c2ccccc2)CC1,"inconclusive: 39.8 µM [inhibitor, full curve]"
22,Cc1ccc(C(=O)NCC(c2ccco2)N2CCc3ccccc32)cc1C (stereo not given),"inconclusive: 44.7 µM [inhibitor, partial curve]"
23,Cc1c2cnn(-c3ccccc3)c(=O)c2c(C)n1CCCC(=O)Nc1ccc(F)cc1F,"inconclusive: 79.4 µM [inhibitor, partial curve]"
24,O=C(c1ccc2c(Cl)c3c(nc2c1)CCCC3)N1CCN(c2ccccc2)CC1,"inconclusive: 56.2 µM [inhibitor, partial curve, poor fit]"
25,Cc1ccc(-n2ccc(=O)c(C(=O)Nc3ccc(S(=O)(=O)Nc4nccc(C)n4)cc3)n2)cc1,"inconclusive: 35.5 µM [inhibitor, partial curve]"
